According to PubChem BioAssay AID624417 (National Center for Advancing Translational Sciences (NCATS), 2012):
Where “and” joins values, the source holds several entries; their conditions need not be identical. Identical values can stand only once. Among all 410,000 compounds or so, about 6,400 (1.6%) were called active. Inconclusive results, whose numbers are uncertain, are shown with a selection of clear calls. Calls follow the shape of the dose curve; as a rule, active = well fitted inhibition curve with a large enough effect; inconclusive = small, poorly fitted or top-dose-only effect; inactive = no such curve, though single readings can be large or run the other way. Where the call is inconclusive, the potency comes from a doubtful curve fit.

Each compound was assayed against Glucagon-like peptide 1 receptor (Homo sapiens) (UniProt P43220) (assay: qHTS of GLP-1 Receptor Inverse Agonists (Inhibition Mode)). Conditions: HEK293 GLP-1R CRE-luciferase, luminescence, 24 h; Potency: GLP-1R form is constitutively active unless noted; activity change, negative = inhibition: at 38.3 µM (top of the series) unless noted.
Text: The overall goal of this project was to develop a novel assay for discovering small molecule ligands for class B1 G protein-coupled receptors (GPCRs). Very few agonists (or inverse agonists in inhibition mode) with generally weak activity for this entire group of physiologically important receptors are known to date. To establish proof-of-principle that this critical bottleneck can be overcome with a suitable screening approach, our studies focused on the class B1 receptor for glucagon-like peptide-1 (GLP-1R), a potential therapeutic target for diabetes and neurodegenerative disease. The assay was developed using a cell-based functional readout. Toward this goal, stably transfected HEK293 cell clones were established that co-express (i) a cAMP-responsive luciferase reporter gene, and (ii) constitutively active GLP-1R that upon ligand interaction inhibit (inverse agonists) the luciferase activity. In addition, two control cell lines were developed: (i) one that express only the cAMP-responsive reporter gene to enable initial exclusion of GLP-1R independent effects of candidate probes; and (ii) one with the reported gene cloned with another constitutively active orphan receptor GPR119 to enable exclusion of GLP-1R independent inhibitor effects of candidate inverse agonists. To that end, this assay was optimized for 1536-well format and screened against the MLSMR. […] NIH Molecular Libraries Probe Production Network [MLPCN] NIH Chemical Genomics Center [NCGC] Grant: NS064851 PI Name: Martin Beinborn, Tufts Medical Center
Six ul of cell suspension (200 cells/uL in DMEM + 10% Nu serum + 1% pen-strep) is dispensed in a white solid 1536-well plate. The plates are incubated for 12 hours at 37 deg C at 5% CO2 followed by addition of 23 nL compounds. After 24 hr incubation at 37 deg C and 5% CO2, 3 uL of luciferase assay detection reagent is added. A luminescence read is obtained on the PerkinElmer Viewlux after 12 min incubation at room temperature.
% is scaled to controls: 0 for no effect and ±100 for the full control effect; potency is read from the fitted curve at half-maximal effect; tags tell the direction and shape of the fitted curve.
Also: nearly all actives have a fitted effect of over 55% in size.

Chain of UniProt P43220 (P43220 whole entry, looked up): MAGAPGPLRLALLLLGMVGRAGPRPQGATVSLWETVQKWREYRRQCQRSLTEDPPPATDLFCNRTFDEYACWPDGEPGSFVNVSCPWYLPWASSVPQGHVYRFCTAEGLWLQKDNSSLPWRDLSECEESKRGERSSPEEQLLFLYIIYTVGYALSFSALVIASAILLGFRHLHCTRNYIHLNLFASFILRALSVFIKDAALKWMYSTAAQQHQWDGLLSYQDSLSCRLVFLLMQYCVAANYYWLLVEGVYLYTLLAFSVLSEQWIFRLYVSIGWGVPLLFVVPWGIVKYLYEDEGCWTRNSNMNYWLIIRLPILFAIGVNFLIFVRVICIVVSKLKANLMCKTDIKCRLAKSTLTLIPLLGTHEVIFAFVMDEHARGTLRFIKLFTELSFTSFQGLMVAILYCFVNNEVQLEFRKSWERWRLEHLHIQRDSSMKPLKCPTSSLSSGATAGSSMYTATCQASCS

Structure (SMILES) | Potency | activity change, negative = inhibition
Cc1c(-c2cccc(Cl)c2)nc2ccccc2c1C(=O)N1CCC2(CC1)OCCO2 | inconclusive: 31.6 µM [inhibitor, partial curve, poor fit] | 
COc1cc(CC(C)N)c(OC)cc1I (stereo unspecified) | inconclusive: 22.4 µM [inhibitor, partial curve, poor fit] | 
CC1CCC(C(C)C)C(OP(N)(=O)c2ccccc2)C1 (stereo unspecified) | inconclusive: 11.2 µM [inhibitor, partial curve, poor fit] | 
Cc1cc2c(cc1C)NP(=S)(c1ccccc1)N2 | inconclusive: 28.2 µM [inhibitor, single point] | 
COC(=O)C1=C(c2cc3ccccc3s2)C[C@@H]2CC[C@H]1N2C(=O)NCc1ccc(F)cc1 | inconclusive: 12.6 µM [inhibitor, single point] | 
CN1C(=O)C(=Cc2ccccc2Oc2ccc(Cl)c(F)c2)C(=O)N(C)C1=O | inconclusive: 31.6 µM [inhibitor, single point] | 
Cc1ccc(N(C)C(=O)Oc2cccc3cccnc23)cc1 | inconclusive: 3.98 µM [inhibitor, full curve, poor fit] | 
Cc1cccc(NC(=O)c2ccc(F)c(S(=O)(=O)N3CCN(c4ccc(F)cc4)CC3)c2)c1 | inconclusive: 10 µM [inhibitor, partial curve, poor fit] | 
CSCCC(c1nnnn1C1CCCCC1)N1CCC(n2c(=O)[nH]c3ccccc32)CC1 (stereo unspecified) | inconclusive: 28.2 µM [inhibitor, single point] | 
CCOP(=O)(CCP(=O)(OCC)OCC)OCC.C[CH2][Sn]([Cl])([Cl])[CH2]C | inconclusive: 8.91 µM [inhibitor, single point] | 
Cc1ccc(Cn2c(SCc3ccc(C(=O)NC4CCCC4)cc3)nc3ccncc32)cc1 | inconclusive: 11.2 µM [inhibitor, single point] | 
CCCCCSc1cc(O)c(C(CNC)C(C)C)cc1OC (stereo unspecified) | active: 10 µM [setting not given] | 
Cc1cc(C=C2C(=O)NC(=S)NC2=O)c(C)n1C1CCCC1 |  | inactive: -15.7%
CC=C(C)C(=O)OC1CCN2CC=C(COC(=O)C(O)(C(C)OC)C(C)(C)O)C12 (stereo unspecified) |  | inactive: 1.04%
O=P(Nc1ccccc1)(Nc1ccccc1)Oc1ccccc1 | inconclusive: 28.2 µM [inhibitor, single point] | 
Cc1cccc(-c2nc3ccccc3c(=O)n2-n2cccc2)c1 | inconclusive: 5.62 µM [inhibitor, full curve, poor fit] | 
CC(C)CCNC(=O)c1cc(C(=O)c2cc(Br)ccc2O)cn(CCC(C)C)c1=O | inconclusive: 3.55 µM [inhibitor, full curve, poor fit] | 
CC(Cc1ccccc1)NC(=O)Cc1ccc(N(C)C)cc1 (stereo unspecified) | inconclusive: 28.2 µM [inhibitor, single point] | 
CC(=O)OC1(c2ccccc2)CCN(C2CCCCC2)CC1C (stereo unspecified) | inconclusive: 11.2 µM [inhibitor, partial curve, poor fit] | 
Cc1ccc(Cn2cc(C=O)c(-c3ccc(F)cc3)n2)cc1 | inconclusive: 22.4 µM [inhibitor, single point] | 
COc1ccc(C2NCc3ccccc3-n3cccc32)cc1 (stereo unspecified) | inconclusive: 11.2 µM [inhibitor, partial curve, poor fit] | 

Structure (SMILES) | Potency | activity change, negative = inhibition
Cc1cccc(OP(N)(=O)Oc2cccc(C)c2C)c1C | active: 11.2 µM | 
CCOC(=O)C1(c2ccccc2)CCN(CCC(C#N)(c2ccccc2)c2ccccc2)CC1 | inconclusive: 5.01 µM [inhibitor, full curve, poor fit] | 
Cc1cc(C)cc(NC(=O)Cn2c(=O)oc3cc(S(=O)(=O)N4CC(C)CC(C)C4)ccc32)c1 (stereo unspecified) | inconclusive: 22.4 µM [inhibitor, single point] | 
OC(COCc1ccc(Cl)cc1)CN1CC=C(c2ccccc2)CC1 (stereo unspecified) | inconclusive: 5.62 µM [inhibitor, partial curve, poor fit] and inconclusive: 31.6 µM [inhibitor, single point] | 
CSCCC(c1nnnn1Cc1ccccc1)N1CCC(n2c(=O)[nH]c3ccccc32)CC1 (stereo unspecified) | inconclusive: 0.891 µM [inhibitor, full curve, poor fit] | 
CCCn1c(C(=O)c2ccccc2)nc2ccccc21 | inconclusive: 28.2 µM [inhibitor, single point] | 
CCOC(=O)C(O)(c1cn(C)c2ccccc12)C(F)(F)F (stereo unspecified) | inconclusive: 11.2 µM [inhibitor, partial curve, poor fit] | 
N#Cc1cc2c(nc1SCC(=O)Nc1cccc(F)c1)C1CCN2CC1 | inconclusive: 12.6 µM [inhibitor, partial curve, poor fit] | 
CCOC(=O)c1c(C)[nH]c(C)c1S(=O)(=O)NCC(=O)N1CCN(c2cc(Cl)ccc2C)CC1 | inconclusive: 8.91 µM [inhibitor, partial curve, poor fit] | 
CC12CCC3C(CCC4(O)CC(O)CCC34C=NO)C1(O)CCC2C1=COC(=O)C1 (stereo unspecified) | inconclusive: 1 µM [inhibitor, full curve, poor fit] | 
CCC(=NCc1ccco1)c1c(O)n(C2CCCCC2)c(=O)[nH]c1=O | inconclusive: 14.1 µM [inhibitor, single point] | 
Oc1ccccc1-[n+]1c(-c2ccccc2)cc(-c2ccccc2)c(O)c1-c1ccccc1 | inconclusive: 10 µM [inhibitor, partial curve, poor fit] | 
COc1cc2c(c(OC)c1OC)-c1ccc(O)cc1[C@@H](NC(C)=O)CC2 |  | inactive: -58.2%
O=P(NCc1ccccc1)(Oc1ccccc1)Oc1ccccc1 | inconclusive: 22.4 µM [inhibitor, single point] | 
O=P1(c2ccccc2)Nc2ccccc2N1c1ccccc1 (stereo unspecified) | active: 4.47 µM [setting not given] | 
CN(C)CCN(C(=O)c1cc(Cl)sc1Cl)c1nc2ccc(F)cc2s1 | inconclusive: 2 µM [inhibitor, single point] | 
O=C(NCC1=C(c2ccc3ccccc3c2)C[C@@H]2CC[C@H]1N2Cc1ccco1)c1cccs1 | inconclusive: 12.6 µM [inhibitor, partial curve, poor fit] | 
Cc1cccc(-n2c(O)c(/C=C3/C(c4ccccc4)=Nc4ccccc43)c(=O)[nH]c2=O)c1 | inconclusive: 1 µM [inhibitor, full curve] | 
O=[N+]([O-])c1ccc(S(=O)(=O)N2CCn3cccc3C2c2ccccc2F)cc1 (stereo unspecified) | inconclusive: 28.2 µM [inhibitor, single point] | 
CC(=NCCc1c[nH]c2ccccc12)c1c(O)n(Cc2ccccc2)c(=O)[nH]c1=O | inconclusive: 10 µM [inhibitor, partial curve, poor fit] | 
Cc1ccc(N)c(N)c1 | inconclusive: 22.4 µM [inhibitor, single point] | 

Structure (SMILES) | Potency | activity change, negative = inhibition
O=C(Cc1n[nH]c(=O)c2ccccc12)OCc1c(Cl)cccc1Cl | inconclusive: 0.891 µM [inhibitor, full curve, poor fit] | 
CCCCN1CC(O)=C(c2nc3ccccc3s2)C1=N |  | inactive: 42.5%
COc1nc2ccccc2c(=O)n1-c1ccc(C)cc1 | inconclusive: 1.78 µM [inhibitor, single point] | 
COc1ccc(-n2c(/C=C/c3ccc(O)cc3)nc3ccccc3c2=O)cc1 | active: 10 µM [setting not given] | 
O=[N+]([O-])c1ccc(C(c2ccc([N+](=O)[O-])cc2)c2ccc([N+](=O)[O-])cc2)cc1 | inconclusive: 7.94 µM [inhibitor, partial curve, poor fit] | 
COC(=O)C1=C(c2ccc(OC(F)(F)F)cc2)C[C@@H]2CC[C@H]1N2C(=O)NC1CCCCC1 | active: 12.6 µM [setting not given] | 
C=CC(=O)NCNC(=O)C=C |  | inactive: 12.4%
CCOC(=O)c1cccc(NC(=O)c2cc(S(=O)(=O)N3CCCC(C)C3)cn2C)c1 (stereo unspecified) | inconclusive: 15.8 µM [inhibitor, single point] | 
COc1ccc(S(=O)(=O)Nc2cc([N+](=O)[O-])ccc2OC)cc1 | inconclusive: 6.31 µM [inhibitor, partial curve] | 
COc1cc2c(cc1O)C[C@H]1NCCc3cc4c(c-2c31)OCO4 | inconclusive: 10 µM [inhibitor, single point] | 
O=C(c1ccc2c(c1)N(Cc1ccc(F)cc1Cl)C(=O)c1ccccc1S2)N1CCC2(CC1)OCCO2 | inconclusive: 11.2 µM [inhibitor, partial curve, poor fit] | 
CC(C)CN(CC(C)C)c1ccc(C=C2C(=O)NC(=S)NC2=O)cc1[N+](=O)[O-] | inconclusive: 14.1 µM [inhibitor, single point] | 
O=C(CN1CCOCC1)c1cccc2ccccc12 |  | inactive: 11.2%
CCOc1ccc(NCc2cccn2-c2nnc(N3CCC(C(=O)NCc4ccc(C)cc4)CC3)s2)cc1 | inconclusive: 14.1 µM [inhibitor, single point] | 
COc1ccc(C(=O)CN2CCCCC2)cc1 |  | inactive: 4.97%
CCCCc1nc2ccccc2c(=O)n1-c1cccc(OC)c1 | inconclusive: 17.8 µM [inhibitor, partial curve, poor fit] | 
CNc1cc(Cl)c2nonc2c1[N+](=O)[O-] | inconclusive: 7.94 µM [inhibitor, partial curve, poor fit] | 
CCC(Oc1cc(Cl)ccc1Cl)C(=O)N1CCC2(CC1)OCCO2 (stereo unspecified) | inconclusive: 28.2 µM [inhibitor, single point] | 
O=C(COC(=O)c1cccc(O)c1)Nc1ccc(Cl)cc1C(=O)c1ccccc1 | inconclusive: 28.2 µM [inhibitor, single point] | 
